For assay [1], the target named is FLAG-tagged RUNX1 wild-type, transfected in HEK293T (UniProt Q01196). Briefly: co-IP; anti-FLAG gel on lysates of transfected HEK293T cells (in part stably expressing IKZF3 or IKZF1); NP-40 buffer, 4 °C overnight; immunoblot; in Fig. 4a-d cells treated with DMSO or increasing amounts (or 1 μM) of the RUNX inhibitor AI-10-104. Background: In western blotting, separated proteins are transferred to a membrane and probed.

Protein sequences, listed by entry. Tags and fused reporters are not part of them.
UniProt Q13761: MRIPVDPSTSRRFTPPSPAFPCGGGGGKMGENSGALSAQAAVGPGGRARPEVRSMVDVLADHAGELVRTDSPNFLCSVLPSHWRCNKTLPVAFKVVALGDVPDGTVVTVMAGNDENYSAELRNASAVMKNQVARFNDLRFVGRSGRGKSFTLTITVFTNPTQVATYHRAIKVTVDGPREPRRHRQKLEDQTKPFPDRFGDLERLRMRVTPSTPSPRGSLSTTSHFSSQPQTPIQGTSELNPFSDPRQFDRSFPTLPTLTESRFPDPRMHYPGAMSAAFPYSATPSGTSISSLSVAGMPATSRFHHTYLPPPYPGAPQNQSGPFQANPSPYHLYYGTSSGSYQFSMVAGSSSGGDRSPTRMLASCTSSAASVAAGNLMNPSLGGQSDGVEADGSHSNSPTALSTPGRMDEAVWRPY

Assay [2] addresses FLAG-tagged RUNX3, transfected in HEK293T (UniProt Q13761). The assay is described as above.
Assay [3] addresses T1, FLAG-tagged IKZF3 Δ1-279 (human) (UniProt Q9UKT9).
T1 sequence: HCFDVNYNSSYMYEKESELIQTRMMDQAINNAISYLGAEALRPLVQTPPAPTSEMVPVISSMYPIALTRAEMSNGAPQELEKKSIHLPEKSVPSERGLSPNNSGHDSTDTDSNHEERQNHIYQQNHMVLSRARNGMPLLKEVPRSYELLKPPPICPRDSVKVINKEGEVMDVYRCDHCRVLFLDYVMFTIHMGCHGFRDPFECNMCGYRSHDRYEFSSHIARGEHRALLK
Described as above.

Assay [4] has as its target FLAG-tagged IKZF3 Δ420-509 (human) (UniProt Q9UKT9). Described as above.
The target of assay [5] is FLAG-tagged IKZF3 wild-type, transfected in HEK293T (human) (UniProt Q9UKT9). The description is as above.
In assay [6] the target is T2, FLAG-tagged IKZF3 Δ1-243 (human) (UniProt Q9UKT9).
T2 sequence: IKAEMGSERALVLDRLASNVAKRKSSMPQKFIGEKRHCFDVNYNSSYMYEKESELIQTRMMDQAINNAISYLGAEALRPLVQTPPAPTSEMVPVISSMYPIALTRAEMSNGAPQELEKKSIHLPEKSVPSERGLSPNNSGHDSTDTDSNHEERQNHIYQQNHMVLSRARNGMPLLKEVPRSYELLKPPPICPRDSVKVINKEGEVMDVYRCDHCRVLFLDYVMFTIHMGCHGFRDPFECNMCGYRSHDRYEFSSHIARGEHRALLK
The assay is described as above.

In assay [7] the target is FLAG-tagged IKZF3 Δ480-509 (human) (UniProt Q9UKT9). The description is as above.
The target in assay [8] is T3, FLAG-tagged IKZF3 Δ1-181 (human) (UniProt Q9UKT9).
T3 sequence: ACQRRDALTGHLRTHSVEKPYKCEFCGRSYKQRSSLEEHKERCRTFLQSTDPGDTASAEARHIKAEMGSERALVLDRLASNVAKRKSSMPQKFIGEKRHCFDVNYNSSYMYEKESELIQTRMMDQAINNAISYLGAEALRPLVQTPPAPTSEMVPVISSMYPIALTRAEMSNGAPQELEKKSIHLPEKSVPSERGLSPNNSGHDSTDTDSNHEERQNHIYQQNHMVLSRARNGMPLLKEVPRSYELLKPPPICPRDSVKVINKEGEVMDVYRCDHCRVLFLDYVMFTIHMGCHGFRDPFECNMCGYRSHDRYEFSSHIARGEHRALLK
The assay is described as above.

Assay [9] concerns the target FLAG-tagged IKZF3 wild-type, transfected in HEK293T (human) (UniProt Q9UKT9). Briefly: co-IP; anti-FLAG IP from HEK293T cells transfected with FLAG-IKZF1 or FLAG-IKZF3; immunocomplexes treated with Benzonase for 30 min on ice and washed further; immunoblot.
Assay [10] has as its target FLAG-tagged human IKZF3, stably expressed in myeloma cells (human) (UniProt Q9UKT9). Briefly: co-IP; anti-FLAG resin on extracts of ARP-1 and OPM-1 cells stably expressing FLAG-IKZF1 or FLAG-IKZF3; NP-40 buffer (0.1% NP-40, 15 mM Tris-HCl pH 7.4, 1 mM EDTA, 150 mM NaCl, 1 mM MgCl2, 10% glycerol), 4 °C overnight; immunoblot.
Assay [11] has as its target GST-IKZF3, purified recombinant (human) (UniProt Q9UKT9). Briefly: pull-down; purified GST-tagged proteins incubated with in vitro translated FLAG-tagged proteins at 4 °C overnight; Glutathione Sepharose 4B; probed with anti-FLAG antibodies; only the target purified.

We go through 5 substances from publication PMC6687534.

Results are given in words; binding and its absence hold for the method and conditions named. In cells and extracts the contact can be indirect. Some binding calls cover weakened binding; strength is not graded here. For part of these data: Where a sequence is shown, tags or fusion partners need not be part of it.

As for “IKZF3 stably expressed in HEK293T cells (from UniProt Q9UKT9 1-509)”, the binding result in assay [1] and in assay [2] was “binds” each time.
As to “RUNX1 found in HEK293T cell extracts (from UniProt Q01196 1-453)”, the binding entry is reported as “no binding” in assay [3]; “binds” in assay [4]; “binds” in assay [5]; “no binding” in assay [6]; “binds” in assay [7]; “no binding” in assay [8]. Besides, the binding entry in assay [9] is “binds”.
In the case of “endogenous RUNX1 of myeloma cells (from UniProt Q01196 1-453)”, the binding entry in [10] is “binds”.
Same read-out and setting: the same measure for “endogenous RUNX3 of myeloma cells (from UniProt Q13761 1-415)”: “binds”.
Turning to “in vitro translated FLAG-tagged RUNX1, full-length (from UniProt Q01196 1-453)”, the binding entry in [11] was “binds”.
